Measurements published in PubChem BioAssay AID2675 (National Center for Advancing Translational Sciences (NCATS), 2010).
Among all 280,000 compounds or so, about 100 (0.036%) were called active. This list was built around the results that the source calls inconclusive (neither active nor inactive); the mix of calls is not that of the screen. Calls come from the whole dose curve; as a rule, active = well fitted inhibition curve with a large enough effect in the signal ratio, with a control signal flat (not every such curve was filed as active); inconclusive = small, poorly fitted or top-dose-only effect, or effect the other way, or a change in a side signal; inactive = no such curve, though single readings can be large or run the other way; the % refers to the signal ratio. Where the call is inconclusive, the potency comes from a doubtful curve fit. A note “side channel” means that the fit belongs to a control or component signal, not to the main read-out.
Potency is the fitted concentration of half-maximal effect; tags give direction and shape of the fitted curve or compound fluorescence and quenching.

Each compound was assayed against Muscleblind-like protein 1 (Homo sapiens) (UniProt Q9NR56) (assay: qHTS Assay for Inhibitors of MBNL1-poly(CUG) RNA binding). Settings: TR-FRET MBNL1-His/biotin-(CUG)12 binding, 665/545 ratio; series mostly up to 57.5 µM.
UniProt Q9NR56, sequence (Q9NR56 whole entry, looked up): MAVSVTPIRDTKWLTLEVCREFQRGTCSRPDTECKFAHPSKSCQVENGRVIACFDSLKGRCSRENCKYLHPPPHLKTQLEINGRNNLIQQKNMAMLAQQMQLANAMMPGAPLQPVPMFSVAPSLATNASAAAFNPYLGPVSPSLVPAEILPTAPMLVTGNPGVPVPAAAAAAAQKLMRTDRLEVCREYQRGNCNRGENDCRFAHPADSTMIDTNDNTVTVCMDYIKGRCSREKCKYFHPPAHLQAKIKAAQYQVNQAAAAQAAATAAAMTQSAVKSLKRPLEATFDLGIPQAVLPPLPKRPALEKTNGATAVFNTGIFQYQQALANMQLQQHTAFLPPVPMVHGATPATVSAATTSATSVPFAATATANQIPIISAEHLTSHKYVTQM
Summary of the method: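 MBNL1-His + Biotin-(CUG)12, cpd titration 92 nM–58 uM; Tb anti-His Ab 0.055 ng/ul, SA-XL665 5 nM (final); 60 min RT; ratiometric 665/545 nm, Ex 340 nm; normalized to buffer and full-complex controls.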
With `O=C(CN1C(=O)S/C(=C\c2ccccc2)C1=O)NCCCn1ccnc1` the Potency was inconclusive: 25.1 µM [quencher, side channel, partial curve].
In the case of `CC(C)(C)NC(=O)C(c1cccnc1)N(C(=O)c1ccc(Cl)nc1)C1CCCC1` (configuration not stated), the Potency is reported as inconclusive: 39.8 µM [quencher, side channel, single point].
For `S=C(Nc1ccc2nsnc2c1)N1CCCC1`, the Potency was inconclusive: 17.8 µM [quencher, side channel, partial curve].
With `COc1ccc(CCNC(=O)CN(c2cc([N+](=O)[O-])ccc2OC)S(C)(=O)=O)cc1` the Potency was inconclusive: 44.7 µM [quencher, side channel, partial curve].
For `NC(=O)c1sc2nc3c(c(-c4cccnc4)c2c1N)CCC3`, the Potency was inconclusive: 8.91 µM [quencher, side channel, single point].
With `O=[N+]([O-])c1ccccc1-c1ccc(C(=S)N2CCCC2)o1` the Potency was inconclusive: 28.2 µM [quencher, single point].
In the case of `CCOC(=O)c1[nH]ncc1CN1CCCC(C(=O)c2ccc(OC)c(OC)c2)C1` (configuration not stated), the Potency is reported as “inactive”.
`CCN(CC)S(=O)(=O)c1cc([N+](=O)[O-])ccc1NNC(=O)Nc1ccc(F)cc1` was tested, and the Potency was inconclusive: 17.8 µM [quencher, side channel, single point].
For `COc1ccc(NC(=O)C2CCN(C(=O)[C@@H]3Cc4ccccc4CN3)CC2)cc1`, the Potency was “inactive”.
For `O=C(N/N=C/c1ccc([N+](=O)[O-])o1)c1sc2ccccc2c1Cl`, the Potency was inconclusive: 1.78 µM [quencher, full curve, poor fit].
`Cc1cc(C)n2nc(C(=O)N/N=C/c3cccs3)nc2n1` was tested, and the Potency was inconclusive: 8.91 µM [quencher, side channel, partial curve].
In the case of `O=[N+]([O-])c1cccn2cc(-c3ccc(Br)cc3)nc12`, the Potency is reported as inconclusive: 3.16 µM [quencher, side channel, full curve].
In the case of `COc1cccc(NC(=O)CS(=O)(=O)c2cccc3nsnc23)c1`, the Potency is reported as inconclusive: 10 µM [quencher, side channel, partial curve].
In the case of `O=C(COC(=O)Cn1cnc2ccccc21)Nc1cccc([N+](=O)[O-])c1`, the Potency is reported as inconclusive: 11.2 µM [quencher, side channel, partial curve].
`Cc1ccc(C(=O)N/N=C\C2CC=CCC2)cc1[N+](=O)[O-]` (configuration not stated) was tested, and the Potency was inconclusive: 39.8 µM [quencher, side channel, partial curve, poor fit].
For `CN(C)c1cccc(C(=O)OCC(=O)Nc2ccccc2Sc2ccccc2)c1`, the Potency was inconclusive: 0.1 µM [fluorescent, side channel, partial curve, poor fit].
In the case of `O=C(Nc1ccc(C(=O)O)cc1)/C(=C\c1ccc([N+](=O)[O-])cc1)NC(=O)c1ccc(Br)cc1`, the Potency is reported as inconclusive: 14.1 µM [quencher, partial curve].
In the case of `CC(C)CN(C(=O)COC(=O)c1ccc([N+](=O)[O-])o1)C1CCS(=O)(=O)C1` (configuration not stated), the Potency is reported as inconclusive: 28.2 µM [quencher, side channel, single point].
With `CCOC(=O)CN=C/C(C(=O)Nc1nccs1)=C(/C)O` the Potency was inconclusive: 20 µM [quencher, side channel, partial curve].
With `Cc1ccc2c(c1)N(C(=O)CSc1nncn1C)C(C)(C)c1ssc(=S)c1-2` the Potency was inconclusive: 12.6 µM [quencher, side channel, partial curve].
`CCc1cccc(C)c1NC(=O)COC(=O)c1ccc2c(c1)S(=O)(=O)c1ccccc1C2=O` was tested, and the Potency was inconclusive: 10 µM [quencher, side channel, partial curve].
With `C=CCn1c(O)c(N=NC(=O)OCC)c2ccccc21` the Potency was inconclusive: 20 µM [quencher, side channel, partial curve].
`O=C(N/N=C/c1cccnc1)c1ccc(NC(=O)c2cccc(Cl)c2)cc1` was tested, and the Potency was inconclusive: 79.4 µM [inhibitor, partial curve].
In the case of `Cc1cc([N+](=O)[O-])ccc1NC(=O)COc1nsnc1N1CCOCC1`, the Potency is reported as inconclusive: 15.8 µM [quencher, side channel, partial curve].
With `O=C(c1ccc(Cn2cc(Cl)cn2)o1)N1CCN(Cc2ccc3c(c2)OCO3)CC1` the Potency was “inactive”.
`CC(C)CCC(C(=O)O)C(C)CC(=O)Nc1ccn(-c2ccccc2)n1` (configuration not stated) was tested, and the Potency was “inactive”.
With `Fc1ccccc1OCC1CCCN(Cc2nc(CC3CC3)no2)C1` (configuration not stated) the Potency was “inactive”.
`CCOC(=O)c1ccc(-c2ccc(C=O)o2)cc1` was tested, and the Potency was inconclusive: 15.8 µM [quencher, side channel, partial curve].
With `Cc1ccc(-n2c(=O)[nH]cc(C(=O)N3CCc4ccccc43)c2=O)cc1C` the Potency was inconclusive: 31.6 µM [quencher, side channel, single point].
In the case of `Cc1cc(NS(=O)(=O)c2ccc(NC(=O)c3ccc(Cl)cc3[N+](=O)[O-])cc2)no1`, the Potency is reported as inconclusive: 17.8 µM [quencher, side channel, partial curve].
`COc1ccc(CCC(=O)Nc2ccc(C)c([N+](=O)[O-])c2)cc1` was tested, and the Potency was inconclusive: 39.8 µM [quencher, side channel, single point].
For `O=C(N(c1ccccc1)c1ccccc1)N(c1ccccc1)c1ccccc1`, the Potency was “inactive”.
With `CCOc1ccc(S(=O)(=O)Nc2ccccc2SC)cc1` the Potency was “inactive”.
In the case of `CCCOc1ccc(C(=O)NNC(=S)NC(=O)c2cc(-c3ccc(Cl)cc3)nc3ccccc23)cc1`, the Potency is reported as “inactive”.
In the case of `CSc1nnc(-c2ccco2)c(-c2ccco2)n1`, the Potency is reported as inconclusive: 25.1 µM [quencher, side channel, partial curve].
With `O=[N+]([O-])c1ccc(C2CCCC/C2=N/OCc2ccc(F)cc2)c([N+](=O)[O-])c1` (configuration not stated) the Potency was inconclusive: 35.5 µM [quencher, side channel, single point].
In the case of `COc1cc(/C=N/NC(=O)c2cccnc2)ccc1OS(=O)(=O)c1ccc(C)cc1`, the Potency is reported as inconclusive: 1 µM [quencher, side channel, full curve].
For `Oc1c(Br)cc(/C=N/Nc2ccc(Cl)nn2)cc1Br`, the Potency was inconclusive: 25.1 µM [quencher, side channel, partial curve].
`Cc1nc2cc(Nc3nnc(-c4ccccc4)c4ccccc34)ccc2n1C` was tested, and the Potency was inconclusive: 25.1 µM [quencher, side channel, partial curve].
`O=[N+]([O-])c1cc(/C=N/O)ccc1Oc1ccccc1Cl` was tested, and the Potency was inconclusive: 25.1 µM [quencher, side channel, partial curve].
In the case of `CCCCOc1ccc(C(=O)Nn2c(-c3cccs3)nc3ccccc3c2=O)cc1`, the Potency is reported as inconclusive: 11.2 µM [fluorescent, side channel, partial curve].
In the case of `c1csc(-c2csc(-c3cccs3)n2)c1`, the Potency is reported as inconclusive: 22.4 µM [quencher, partial curve].
`CCOc1ccc(NC(=O)Cn2nnc(-c3ccccc3NC(=O)C3CC3)n2)cc1` was tested, and the Potency was “inactive”.
With `CCOC(=O)c1sc(=S)n(-c2ccccc2Cl)c1SC` the Potency was inconclusive: 39.8 µM [quencher, side channel, single point].
With `CCOc1cccc(C(=O)Nc2cccc(C(C)=O)c2)c1` the Potency was inconclusive: 4.47 µM [fluorescent, side channel, partial curve].
For `COc1ccc(-n2c(C)c([N+](=O)[O-])c3ccc(O)c(CN4CCCCC4)c32)cc1`, the Potency was inconclusive: 17.8 µM [quencher, side channel, partial curve].
For `COc1cc2ccccc2cc1C(=O)N/N=C/c1ccc2c(c1)OCO2`, the Potency was inconclusive: 25.1 µM [quencher, side channel, single point].
In the case of `O=S(=O)(c1cccc2nsnc12)N1CCc2ccccc21`, the Potency is reported as inconclusive: 10 µM [quencher, side channel, partial curve].
In the case of `COc1ccccc1CNC(=O)C1CCN(S(=O)(=O)c2ccc3nc4c(c(C(=O)O)c3c2)CCCC4)CC1`, the Potency is reported as “inactive”.
With `COCc1cc(C)nc(N/N=C/c2ccc(-c3cc(C(=O)O)ccc3Cl)o2)c1C#N` the Potency was inconclusive: 10 µM [quencher, side channel, partial curve].
For `CCCn1c2ccc(F)cc2c2nnc(SCCN3CCCCC3)nc21`, the Potency was inconclusive: 5.01 µM [quencher, side channel, partial curve].
With `O=C(/C=C/Nc1cccc(C(F)(F)F)c1)c1ccc(Oc2ncccn2)cc1` the Potency was inconclusive: 20 µM [quencher, side channel, partial curve].
For `O=C(NNC(=O)c1cc2cc(Br)ccc2oc1=O)c1ccc(O)cc1`, the Potency was inconclusive: 2.82 µM [quencher, side channel, partial curve, poor fit].
With `O=C(NC(CSCc1ccccc1)C(=O)N/N=C/c1ccc(O)cc1O)c1ccc([N+](=O)[O-])cc1` (configuration not stated) the Potency was inconclusive: 22.4 µM [quencher, side channel, single point].
In the case of `Cc1ccc2nc3c(cc(C(=O)NC4CCCC4)c(=N)n3CCCn3ccnc3)c(=O)n2c1`, the Potency is reported as inconclusive: 1.78 µM [quencher, side channel, partial curve].
In the case of `COc1cc(/C=C2\SC(=S)N(NC(=O)c3cccc(O)c3)C2=O)ccc1O`, the Potency is reported as inconclusive: 28.2 µM [quencher, side channel, partial curve].
With `O=C1CC(c2ccccc2)c2cc(O)ccc2O1` (configuration not stated) the Potency was inconclusive: 39.8 µM [quencher, side channel, single point].
